The other results are listed elsewhere or left out. One pool of 16,384 single-stranded DNAs met each Rep nickase domain in vitro (1 h at 37 °C, 3 µM enzyme); the outer parts of the 90-letter strands are left off. A value is the log2 ratio of uncut reads to the pool without enzyme; uncut sequences lie near 0, cut ones below; no hit call is given. The scaling is to total reads; values above 0 arise when much of the pool is cut.
Tested on: T1, Rep nickase domain of tomato golden mosaic virus
T1 sequence (residues 1-124 of Rep, tag left off): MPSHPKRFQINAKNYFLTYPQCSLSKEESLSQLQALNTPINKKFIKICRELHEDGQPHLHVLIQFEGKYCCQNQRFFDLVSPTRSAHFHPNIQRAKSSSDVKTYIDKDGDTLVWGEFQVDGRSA
Test: uncleaved DNA left, log2 of reads against the no-enzyme library (log2 ratio); higher = less cleavage (more negative = more Rep cleavage of the k-mer); sequences stand for … in CTCGTCCG…ACCGGAGA
Experimental: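 A pool of 90-nt single-stranded DNAs with seven random bases just before the constant AC of the nick site (name = the seven bases) was cut by 3 µM recombinant His6-SUMO-tagged Rep nickase domain (300 nM DNA, 50 mM HEPES pH 8.0, 50 mM NaCl, 1 mM MnCl2, 1 h, 37 °C, three replicates). Uncut DNA was amplified and sequenced.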

| Sequence | uncleaved DNA left (log2) |
| --- | --- |
| GCACCGC | -0.0106 |
| GGCTGTA | 0.0854 |
| ACCGACT | 0.227 |
| TAAAAAG | 0.0644 |
| CTCTTTT | -0.047 |
| GGAGTGG | 0.0243 |
| GATACCA | 0.0223 |
| GGGCGCC | -0.0173 |
| CATCTAG | 0.0869 |
| GATAAAA | 0.0382 |
| CAAGGTT | 0.0167 |
| GACCCGT | 0.0151 |
| CAGCTGG | 0.151 |
| TGAATAG | 0.176 |
| ATAAAAA | -0.0245 |
| CCGTAAA | -0.00464 |
| ACGTCTC | -0.0482 |
| GTCATGG | 0.32 |
| GCGTCCG | -0.0428 |
| AATTTTC | -0.0933 |

| Sequence | uncleaved DNA left (log2) |
| --- | --- |
| TGTAGAC | 0.115 |
| CGTGGCC | -0.0117 |
| GCCAAAG | 0.147 |
| ATCACGT | -0.0417 |
| ACGAATA | -0.051 |
| GACTCGA | 0.0344 |
| CTATTTG | -0.0175 |
| CATATGC | -0.2 |
| ACCTTAA | -0.0756 |
| TAATAGA | -0.139 |
| CTCTGAT | -0.0524 |
| GAGACTA | 0.0644 |
| AAACTTT | -0.286 |
| GTGGCCT | -0.111 |
| TCGAATT | -0.034 |
| ATTGTGT | -0.062 |
| CCTATAC | -0.0245 |
| GGGTTAT | 0.0228 |
| GCTGAAT | 0.153 |
| GGAGACT | 0.25 |
